Our source for the result_ITMP values is article PMC13083723 (Patterns, 2026).

Among all 5,400 compounds or so, about 190 (3.5%) showed an effect of 50% or more. The list shows a part of the results.

In this test the test system is Vero-E6. The test can be described thus: primary screen, phospholipidosis by LipidTOX staining; higher = more effect of the substance. The note with it: 10 µM. The gist of the method:
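Drug-induced phospholipidosis detected with HCS LipidTOX Red reagent in Vero-E6 cells. Compounds tested at 10 μM, with amiodarone (10 μM) as positive control and DMSO (0.1 v/v %) as vehicle.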
Take `COc1cc(OC)cc(C(=O)NNC(=O)Nc2cccc3ccccc23)c1`: the result_ITMP is -1.62%.

Turning to `CN[C@@H]1[C@@H](O)[C@@H](O[C@@H]2[C@@H](O)[C@H](O[C@H]3OC(CN)=CC[C@H]3N)[C@@H](N)C[C@H]2N)OC[C@]1(C)O`, the result_ITMP was -1.73%.

In the case of `O=C(N[C@H]1CN2CCC1CC2)c1ccc(Cl)cc1`, the result_ITMP is on record as -0.98%.

Turning to `Cc1oc2ccccc2c1CNC(=O)NCc1cccs1`, the result_ITMP is given as -6.74%.

On to `COc1cc(O)c2c(c1)C(=O)c1cc(C)cc(O)c1C2=O`, for which the result_ITMP is -10.6%.

Take `CC(C)[C@H]1c2ccc(F)cc2CC[C@@]1(CCN(C)CCCc1nc2ccccc2[nH]1)OC(=O)C1CC1`: the result_ITMP is listed as 68.1%.

For the compound `CCOC(=O)n1ccn(C)c1=S`, the result_ITMP is listed as -1.98%.

`COc1cc(N2CCC(N)CC2)ccc1Nc1ncc(Cl)c(-c2c[nH]c3ccccc23)n1`: the result_ITMP was 15.8%.

On to `CC1(O)CCC(C(C)(C)O)CC1` (stereo not shown), for which the result_ITMP is reported as -1.81%.

In the case of `N#Cc1ccc(N2CCN(C(=O)COc3ccc4[nH]cc(CCN)c4c3)CC2)cc1`, the result_ITMP came out at 1.4%.

Turning to `C[C@H](N)[C@H](O)c1cccc(O)c1`, the result_ITMP was -8.67%.

On to `CC(=O)OCC(=O)[C@@]1(O)CCC2C3CCC4=CC(=O)CC[C@]4(C)C3C(=O)C[C@@]21C` (stereo partly shown), for which the result_ITMP is 2.13%.

For the compound `COC(=O)c1ccccc1NC(=O)c1ccc(F)cc1`, the result_ITMP was found to be 0.11%.

Consider `CC(=O)[C@@]1(O)CC[C@H]2[C@@H]3C[C@H](C)C4=CC(=O)CC[C@]4(C)[C@H]3CC[C@@]21C`, for which the result_ITMP was -2.43%.

Take `CCN(CC)CCOC(=O)C(Cc1cccc2ccccc12)CC1CCCO1` (stereo not shown): the result_ITMP is recorded as 30.3%.

For the compound `CC1=C(/C=C/C(C)=C/C=C/C(C)=C/C(=O)O)C(C)(C)CCC1` [R4A_0003961_001 / SPE_K71879491], the result_ITMP is 4.7%.

`CCC(=N\O)/C(C)=C/c1ccc(F)cc1`: the result_ITMP turned out to be 7.9%.

On to `COc1ccc(-c2nc(-c3ccc(-c4cccc(Cl)c4)o3)[nH]c2-c2ccc(OC)cc2)cc1`, for which the result_ITMP is given as -2.28%.

With `Cc1nc2sccn2c(=O)c1CCN1CCC(=C(c2ccccc2)c2ccc(F)cc2)CC1`, the result_ITMP was determined as 20.4%.

As for `CC(C)(C)C(=O)C(Oc1ccc(Cl)cc1)n1ccnc1` (stereo not shown), the result_ITMP is on record as -4.32%.

Turning to `Cc1ccccc1OCC(O)CO` (stereo not shown), the result_ITMP was -0.54%.

On to `CC1=C(CC(=O)O)c2cc(F)ccc2/C1=C\c1ccc(S(C)(=O)=O)cc1`, for which the result_ITMP was -2.65%.

As to `CC(C)N(CCCNC(=O)Nc1ccc(C(C)(C)C)cc1)C[C@H]1O[C@@H](n2cc(Br)c3c(N)ncnc32)[C@H](O)[C@@H]1O`, the result_ITMP is -0.74%.

Turning to `COc1ccc(-c2csc(NC(=O)[C@H]3CCCCN3S(=O)(=O)c3ccc(C)cc3)n2)cc1`, the result_ITMP is 2.21%.

Regarding `CS(=O)(=O)c1ccc(-c2cc(Br)sc2-c2ccc(F)cc2)cc1`, the result_ITMP is given as -2.33%.

As for `O=C1CN(/N=C/c2ccc([N+](=O)[O-])o2)C(=O)N1`, the result_ITMP is -2.22%.

`c1ccc2c(c1)CN1CCCC1=N2`: the result_ITMP is listed as -2.97%.

On to `CCCCNc1cc(C(=O)O)cc(S(N)(=O)=O)c1Oc1ccccc1`, for which the result_ITMP amounted to 0.48%.

Take `C[C@H](Cn1cnc2c(N)ncnc21)OCP(=O)(O)O`: the result_ITMP is recorded as -4.42%.

On to `CNC(=O)c1c(I)c(C(=O)NCC(=O)Nc2c(I)c(C(=O)O)c(I)c(C(=O)NCCO)c2I)c(I)c(N(C)C(C)=O)c1I`, for which the result_ITMP is -8.75%.

As for `C=CCN1C[C@H](C)N([C@H](c2ccc(C(=O)N(CC)CC)cc2)c2cccc(OC)c2)C[C@H]1C`, the result_ITMP was -0.44%.

As to `CCO[C@@H](Cc1ccc(OCCc2ccc(OS(C)(=O)=O)cc2)cc1)C(=O)O`, the result_ITMP is on record as -5.22%.

As to `CCc1cc(O)c(Oc2ccc(C(N)=O)cc2F)cc1F`, the result_ITMP is given as -1.4%.

For `C=CCN1C[C@H](C)N([C@H](c2ccc(C(=O)N(CC)CC)cc2)c2cccc(O)c2)C[C@H]1C`, the result_ITMP is reported as -2.02%.

Turning to `CCOC(=O)[C@H](CCc1ccccc1)N[C@@H](C)C(=O)N(CC(=O)O)C1Cc2ccccc2C1`, the result_ITMP is -3.52%.

Regarding `O=C(NC1CCC1)c1ccc(C#Cc2cccc(F)c2)nc1`, the result_ITMP came out at 1.13%.

On to `Cc1cc(O)c(C(C)C)cc1Cl`, for which the result_ITMP is on record as -3.91%.

With `CC(=O)Oc1ccccc1C(=O)Oc1ccccc1C(=O)O`, the result_ITMP is -8.73%.

`CN[C@@H]1[C@@H](O[C@H]2O[C@H](CO)[C@@H](N)[C@H](O)[C@H]2O)O[C@H]2C[C@@H](N)[C@H](O[C@H]3[C@H](O)[C@@H](O)[C@H](N)C[C@@H]3N)O[C@@H]2[C@@H]1O`: the result_ITMP was 5.54%.

In the case of `N[C@H](C(=O)O)[C@@H]1CC(Cl)=NO1`, the result_ITMP was -7.23%.

Consider `N#CC(c1ccnc(OCc2ccc(CN3CCOCC3)cc2)n1)c1nc2ccccc2s1` (stereo not shown), for which the result_ITMP is 1.37%.

With `O=C(NO)c1cnc(N2CCN(S(=O)(=O)c3ccc4ccccc4c3)CC2)nc1`, the result_ITMP was -0.4%.

`COc1ccc2c(c1)-c1nn(CCCN(C)C)c3ccc([N+](=O)[O-])c(c13)N2`: the result_ITMP is given as 25.8%.

Take `O=C(NCCCN1CCCCCC1)C(c1ccccc1)C1CCCCC1` (stereo not shown): the result_ITMP is 36.5%.

Consider `O=c1ccn([C@@H]2O[C@H](CO)[C@@H](O)[C@H]2O)c(=O)[nH]1`, for which the result_ITMP was -9.17%.

`COc1ccc2[nH]c(-c3ccccc3)c(CCNC(C)=O)c2c1`: the result_ITMP is listed as -1.61%.

On to `CC(C)(C)c1ccc(C(=O)CCCN2CCC(OC(c3ccccc3)c3ccccc3)CC2)cc1`, for which the result_ITMP was -10.4%.

For the compound `CC[C@H](NC(=O)c1c(O)c(-c2ccccc2)nc2ccccc12)c1ccccc1`, the result_ITMP turned out to be 0.11%.

`CCCCCC(O)c1cccc(OCc2ccc3ccccc3n2)c1` (stereo not shown): the result_ITMP is -1.34%.

As for `[O-][n+]1cccc(CO)c1`, the result_ITMP was -1.46%.

Regarding `OC(CC1c2ccccc2-c2cncn21)C1CCCCC1` (stereo not shown), the result_ITMP is -1.09%.

With `COC(=O)Nc1nc2cc(SC(C)C)ccc2[nH]1`, the result_ITMP is on record as -7.27%.

In the case of `C[C@H]1NC(=O)NC1=O`, the result_ITMP is on record as -2.09%.

`O=C(CC12CC3CC(CC(C3)C1)C2)Nc1cccc2nc(NCCNCCO)ccc12`: the result_ITMP is given as -0.03%.

Consider `Cc1ccnc(NS(=O)(=O)c2ccc(N)cc2)n1`, for which the result_ITMP was -3.55%.

As for `NC(=O)OCC(COC(N)=O)c1ccccc1`, the result_ITMP is recorded as -2.04%.

For `N=C(N)NCc1cccc(I)c1`, the result_ITMP is -3.59%.

With `CNC[C@H](O)[C@@H](O)[C@H](O)[C@H](O)CO`, the result_ITMP was -1.34%.

As for `COC(=O)N[C@H](C(=O)N[C@@H](Cc1ccccc1)[C@@H](O)CN(Cc1ccc(-c2ccccn2)cc1)NC(=O)[C@@H](NC(=O)OC)C(C)(C)C)C(C)(C)C`, the result_ITMP was 0.11%.

Take `O=C1C(CCS(=O)c2ccccc2)C(=O)N(c2ccccc2)N1c1ccccc1` (stereo not shown): the result_ITMP is reported as -2.27%.

`N.N.O=C([O-])C[O-].[Pt+2]`: the result_ITMP is given as -1.46%.

As for `CN(C)/C=N/c1c(I)cc(I)c(CCC(=O)[O-])c1I`, the result_ITMP was -3.15%.

As to `COC(=O)Nc1ccc(-c2nc(N3CCOCC3)c3cnn(C4CCN(C(=O)OC)CC4)c3n2)cc1`, the result_ITMP is listed as -3.74%.

For the compound `Clc1ccc(C2=CCCC3CCC2N3)cn1` (stereo not shown), the result_ITMP was -1.49%.

In the case of `CN1CCC(Nc2ncc3ncnc(Nc4ccc(F)c(Cl)c4)c3n2)CC1`, the result_ITMP was 76.5%.

On to `COc1ccc2c(C)nc(Nc3nc(=O)c(C)c(C)[nH]3)nc2c1`, for which the result_ITMP came out at 0.3%.

For `CC1=CC(=C(c2ccc(N)cc2)c2ccc(N)cc2)C=CC1=N`, the result_ITMP is recorded as -10.8%.

As for `Cc1ccc(-c2ncccn2)c(C(=O)N2C[C@H](COc3ccc(F)cn3)CC[C@H]2C)c1`, the result_ITMP is 3.94%.

Turning to `CC(C)n1c(/C=C/[C@@H](O)C[C@@H](O)CC(=O)[O-])c(-c2ccc(F)cc2)c2ccccc21`, the result_ITMP worked out at 0.97%.

On to `O=c1cc(-c2ccccc2)oc2cc(O)c(O)c(O)c12`, for which the result_ITMP was -2.06%.

On to `CC(C)(Oc1ccc(Cl)cc1)C(=O)N1CSCC1C(=O)O` (stereo not shown), for which the result_ITMP is on record as -4.08%.

In the case of `CN(C)CCn1nnnc1SCC1=C(C(=O)O)N2C(=O)[C@@H](NC(=O)Cc3csc(N)n3)[C@H]2SC1`, the result_ITMP is on record as 0.61%.

Take `CN1CCN(c2ccc(Nc3ncc4cc(C#N)c(=O)n(C5CCCC5)c4n3)cc2)CC1`: the result_ITMP is -0.88%.

On to `NCc1ccccc1Sc1ccccc1CO`, for which the result_ITMP was determined as 8.83%.

As to `CC(C)N(CCC(C(N)=O)(c1ccccc1)c1ccccn1)C(C)C` (stereo not shown), the result_ITMP is listed as -1.61%.

For `CC(=O)[O][Hg][c]1ccccc1`, the result_ITMP amounted to 2.59%.

On to `CC(=O)N[C@@H](CS)C(=O)O`, for which the result_ITMP is reported as 0.27%.

For `C[C@]1(c2nc3c(C(N)=O)cccc3[nH]2)CCCN1`, the result_ITMP was -1.53%.

Consider `O=C(O)Cc1cccc(OCCCN(Cc2cccc(C(F)(F)F)c2Cl)CC(c2ccccc2)c2ccccc2)c1`, for which the result_ITMP is given as -0.56%.

For `O=[N+]([O-])/C=C/c1ccc2c(c1)OCO2`, the result_ITMP is reported as 4.02%.

With `CC(=O)O[C@H]1C[C@@]2(C)[C@@H](C[C@@H](O)[C@H]3[C@@]4(C)CC[C@@H](O)[C@@H](C)[C@@H]4CC[C@@]32C)/C1=C(\CCC=C(C)C)C(=O)O`, the result_ITMP is reported as -4.35%.

As for `O=C(Nc1ccc(S(=O)(=O)C(F)(F)F)cc1)C1=CCN(c2ncccc2C(F)(F)F)CC1`, the result_ITMP came out at 9.06%.

Consider `CCCn1c(=O)c2nc(C34CC5CC(CC3C5)C4)[nH]c2n(CCC)c1=O`, for which the result_ITMP was -1.95%.

On to `CC(C)=CCC[C@](C)(O)[C@@H]1CC=C(C)CC1`, for which the result_ITMP is -1.53%.

On to `CCn1nc(C2CCN(C(=O)CCO)CC2)nc1-c1cnc(N)c(-c2nnc(C(C)(C)C)o2)n1`, for which the result_ITMP is recorded as -0.52%.

As to `O=C([O-])Cc1ccccc1Nc1c(Cl)cccc1Cl`, the result_ITMP is reported as -2.2%.

As for `COc1cccc2cc(-c3nc([C@H]4CC[C@H](C(=O)O)CC4)n4ncnc(N)c34)[nH]c12`, the result_ITMP is given as 7.64%.

On to `COC(=O)C(Cc1ccc(OCCn2c(=O)sc3cc(C(=O)c4ccccc4)ccc32)cc1)C(=O)OC`, for which the result_ITMP amounted to 0.06%.

On to `O=C1CCC[C@@H]2[C@H]3CCC[N+]4([O-])CCC[C@@H](CN12)[C@@H]34` (stereo partly shown), for which the result_ITMP is given as -6.58%.

For the compound `CS(=O)(=O)c1ccc(-c2cnc(NCc3ccco3)n3cnnc23)cc1`, the result_ITMP was -9.74%.

With `O=C1NC(=O)c2c1c1c3ccccc3n3c1c1c2c2ccccc2n1C1CCC3O1`, the result_ITMP is recorded as -2.37%.
